Measurements published in patent publication US20190309066A1, “COMBINATION THERAPY FOR THE TREATMENT OF SOLID AND HEMATOLOGICAL CANCERS” (Arch Oncology, Inc., priority 2017, published 2019).
Where a chain is given by its changes, count along the chain named.

B1: VLX8hum_06 IgG2: humanized anti-CD47 mAb (antibody)
heavy: QVQLVQSGAEVKKPGASVKVSCKASGYSFTNYYIHWVRQAPGQGLEWMGYIDPLNGDTTYNQKFKGRVTMTRDTSTSTVYMELSSLRSEDTAVYYCARGGKRAMDYWGQGTLVTVSSASTKGPSVFPLAPCSRSTSESTAALGCLVKDYFPEPVTVSWNSGALTSGVHTFPAVLQSSGLYSLSSVVTVPSSNFGTQTYTCNVDHKPSNTKVDKTVERKCCVECPPCPAPPVAGPSVFLFPPKPKDTLMISRTPEVTCVVVDVSHEDPEVQFNWYVDGVEVHNAKTKPREEQFNSTFRVVSVLTVVHQDWLNGKEYKCKVSNKGLPAPIEKTISKTKGQPREPQVYTLPPSREEMTKNQVSLTCLVKGFYPSDIAVEWESNGQPENNYKTTPPMLDSDGSFFLYSKLTVDKSRWQQGNVFSCSVMHEALHNHYTQKSLSLSPGK
light: DIQMTQSPSSLSASVGDRVTITCRASQSISNYLNWYQQKPGKAPKLLIYYTSRLYSGVPSRFSGSGSGTDFTLTISSLQPEDFATYYCQQGNTLPWTFGQGTKVEIKRTVAAPSVFIFPPSDEQLKSGTASVVCLLNNFYPREAKVQWKVDNALQSGNSQESVTEQDSKDSTYSLSSTLTLSKADYEKHKVYACEVTHQGLSSPVTKSFNRGEC
B2: VLX8hum_07 IgG2: humanized anti-CD47 mAb (antibody)
heavy: B1 heavy with A16S, M70I, R72A, T74E, V79A
light: B1 light
B3: VLX8hum_08 IgG2: humanized anti-CD47 mAb (antibody)
heavy: EVQLVQSGAEVKKPGESLKISCKGSGYSFTNYYIHWVRQMPGKGLEWMGYIDPLNGDTTYNQKFKGQVTISADKSISTAYLQWSSLKASDTAMYYCARGGKRAMDYWGQGTLVTVSSASTKGPSVFPLAPCSRSTSESTAALGCLVKDYFPEPVTVSWNSGALTSGVHTFPAVLQSSGLYSLSSVVTVPSSNFGTQTYTCNVDHKPSNTKVDKTVERKCCVECPPCPAPPVAGPSVFLFPPKPKDTLMISRTPEVTCVVVDVSHEDPEVQFNWYVDGVEVHNAKTKPREEQFNSTFRVVSVLTVVHQDWLNGKEYKCKVSNKGLPAPIEKTISKTKGQPREPQVYTLPPSREEMTKNQVSLTCLVKGFYPSDIAVEWESNGQPENNYKTTPPMLDSDGSFFLYSKLTVDKSRWQQGNVFSCSVMHEALHNHYTQKSLSLSPGK
light: B1 light
B4: VLX8hum_09 IgG2: humanized anti-CD47 mAb (antibody)
heavy: B1 heavy with A16S, N61A, K65Q, M70I, R72A, T74E, V79A
light: B1 light

biological target: T1, human CD47 on hRBCs (Homo sapiens, UniProt Q08722); experiment: Flow cytometry binding to freshly isolated human red blood cells; settings: compared with OV10 hCD47 tumor cells
T1 construct: freshly isolated human red blood cells (hRBCs), which display CD47 on their surface; endogenous in cells; host or cells: human red blood cells from blood of normal volunteers
T1 sequence (Q08722 19-323): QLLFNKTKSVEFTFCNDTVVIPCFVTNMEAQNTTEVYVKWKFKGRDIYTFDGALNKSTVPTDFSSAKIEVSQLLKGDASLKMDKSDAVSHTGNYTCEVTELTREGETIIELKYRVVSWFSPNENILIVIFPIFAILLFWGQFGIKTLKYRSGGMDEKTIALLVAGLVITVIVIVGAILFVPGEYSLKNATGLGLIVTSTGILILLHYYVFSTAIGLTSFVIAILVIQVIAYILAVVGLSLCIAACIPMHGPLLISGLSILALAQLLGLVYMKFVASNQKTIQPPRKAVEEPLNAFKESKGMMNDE
Protocol: Binding activities of chimeric and humanized VLX4, VLX8, and VLX9 mAbs to human CD47 on hRBCs were also determined using flow cytometry.

| Molecule | binding to hRBCs (in words) |
| --- | --- |
| B1 | Kd values similar to the values obtained for OV10 hCD47 tumor cells |
| B2 | Kd values similar to the values obtained for OV10 hCD47 tumor cells |
| B3 | Kd values similar to the values obtained for OV10 hCD47 tumor cells |
| B4 | Kd values similar to the values obtained for OV10 hCD47 tumor cells |
